Assay results: PubChem BioAssay AID504466 (National Center for Advancing Translational Sciences (NCATS), 2011)
Among all 330,000 compounds or so, about 4,200 (1.3%) were called active. The shares of active, inactive and inconclusive entries below differ from those in the screen. Calls follow the shape of the dose curve; as a rule, active = well fitted activation curve with a large enough effect; inconclusive = small, poorly fitted or top-dose-only effect; inactive = no such curve, though single readings can be large or run the other way. Potencies beside an inconclusive call are fits to weak or partial responses and may not hold up.

Test: qHTS screen for small molecules that induce genotoxicity in human embryonic kidney (HEK293T) cells expressing luciferase-tagged ELG1; also: nearly all actives have a fitted effect of over 60% in size; as to activity change, positive = activation: % of control where 0% means no effect
Settings: HEK293T ELG1-luciferase reporter, luminescence, 16 h; series mostly up to 46 µM
In short: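 ELG1-luciferase HEK293T cells, 2,000/well; compound pinned in; 16 hr, 37 °C, 5% CO2; ONE-Glo, 30 min RT; luminescence on CCD imager.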
Potency is read from the fitted curve at half-maximal effect; tags tell the direction and shape of the fitted curve.

Q: For `CN(C)c1ccc(-c2cc(O)c3ncccc3c2)cc1`, which Potency is on record?
A: Its Potency is active: 16.4 µM.

Q: Which Potency does the source give for `Cc1cccc(-c2nc(C#N)c(NC3CCCCC3)o2)c1` here?
A: Its Potency is inconclusive: 3.55 µM [activator, full curve].

Q: Which Potency does the source give for `CN(C)c1ccc(NC(=S)c2ccc3ccccc3n2)cc1` here?
A: Its Potency is inconclusive: 11.6 µM [activator, partial curve, poor fit].

Q: Which Potency does the source give for `Cc1ccc(NC(=O)CSc2ccc(-c3ccc(-n4cccn4)cc3)nn2)c(C)c1` here?
A: Its Potency is “inactive”.

Q: With `O=C(CSc1nnc(C2CCCCC2)o1)N1CCCCC1` as the molecule, how does the Potency read?
A: The Potency was inconclusive: 6.51 µM [activator, single point].

Q: For `COC(=O)c1cc(NC(=O)c2cccc(C(F)(F)F)c2)c(=O)oc1C`, which Potency is on record?
A: Its Potency is “inactive”.

Q: Which Potency does the source give for `CCOC(=O)c1sc(=NC(=O)c2ccc(OC(C)C)cc2)n(C)c1C` here?
A: The Potency was “inactive”.

Q: Which Potency does the source give for `O=c1c2c3c(sc2nc2n1CCCC2)CCCCC3` here?
A: Its Potency is inconclusive: 13 µM [activator, partial curve].

Q: With `CCOC(=O)N=Nc1c(O)n(CC(=O)OC)c2ccccc12` as the molecule, how does the Potency read?
A: The Potency was “inactive”.

Q: For `Clc1cc(Cl)c(OCc2nc(-c3ccccn3)no2)cc1Cl`, which Potency is on record?
A: The Potency was inconclusive: 2.06 µM [activator, full curve].

Q: With `COc1cccc2cc(-c3nnc(-c4ccccc4)o3)c(=O)oc12` as the molecule, how does the Potency read?
A: The Potency was inconclusive: 1.46 µM [activator, full curve].

Q: Which Potency does the source give for `O=C(NCCCN1CCOCC1)c1ccc2nc(Cc3ccccc3F)oc2c1` here?
A: The Potency was inconclusive: 29.1 µM [activator, partial curve, poor fit].

Q: With `O=C(CSc1ncc(-c2ccccc2)[nH]1)Nc1ccccc1F` as the molecule, how does the Potency read?
A: Its Potency is inconclusive: 13 µM [activator, partial curve, poor fit].

Q: Which Potency does the source give for `O=C(c1ccc(-c2cccc(C(F)(F)F)c2)o1)N1CCCCCCC1` here?
A: The Potency was inconclusive: 20.6 µM [activator, single point].

Q: Which Potency does the source give for `Cc1ccc(-c2nn3c(=O)c(C)nnc3s2)cc1` here?
A: Its Potency is inconclusive: 29.1 µM [activator, single point].

Q: For `Cc1cc(C(=O)COC(=O)c2ccc(N)c([N+](=O)[O-])c2)c(C)n1-c1ccc2c(c1)OCO2`, which Potency is on record?
A: The Potency was inconclusive: 32.6 µM [activator, partial curve, poor fit].

Q: With `O=C(/C=C/c1ccco1)N1CCCC(c2ccccc2)C1` (stereo not given) as the molecule, how does the Potency read?
A: The Potency was “inactive”.

Q: For `O=C(NC1CCS(=O)(=O)C1)c1ccc(S(=O)(=O)N2CCCCC2)cc1` (stereo not given), which Potency is on record?
A: The Potency was “inactive”.

Q: For `COc1ccc(-c2nn(-c3ccccc3)cc2/C=C/C(=O)N2CCOCC2)cc1OC`, which Potency is on record?
A: The Potency was “inactive”.

Q: With `Clc1ccc(COc2ccccc2-c2ccnc3ncnn23)cc1` as the molecule, how does the Potency read?
A: The Potency was inconclusive: 11.6 µM [activator, partial curve, poor fit].

Q: Which Potency does the source give for `O=C(O)Cc1sc(Nc2ccccc2)nc1-c1cccs1` here?
A: Its Potency is inconclusive: 23.1 µM [activator, partial curve, poor fit].

Q: With `CSc1nc(N)nc(SCC(=O)OC(C)C)c1C#N` as the molecule, how does the Potency read?
A: Its Potency is inconclusive: 16.4 µM [activator, partial curve, poor fit].

Q: Which Potency does the source give for `O=C(COCc1cc(-c2ccc3c(c2)OCO3)on1)N1CCCCC1` here?
A: Its Potency is inconclusive: 10.3 µM [activator, partial curve, poor fit].

Q: Which Potency does the source give for `CC1OC2(OC1C)C(=O)Nc1ccccc12` (stereo not given) here?
A: The Potency was “inactive”.

Q: For `Cc1ccc(S(=O)(=O)N/N=C\c2cc3c(cc2[N+](=O)[O-])OCO3)cc1`, which Potency is on record?
A: Its Potency is inconclusive: 29.1 µM [activator, partial curve, poor fit].

Q: With `CC1CN(C(c2cccs2)c2sc3ncnn3c2O)CC(C)O1` (stereo not given) as the molecule, how does the Potency read?
A: Its Potency is “inactive”.

Q: Which Potency does the source give for `CCCn1c(O)c(C=Nc2ccccc2)sc1=S` here?
A: The Potency was inconclusive: 20.6 µM [activator, partial curve, poor fit].

Q: Which Potency does the source give for `COc1ccccc1C(=O)Nc1ccc2c(c1)nc1n2CCSC1` here?
A: Its Potency is inconclusive: 8.2 µM [activator, partial curve].

Q: With `CCCc1nc2sc(C(=O)OCC)c(N)c2c2c1COC(C)(C)C2` as the molecule, how does the Potency read?
A: The Potency was inconclusive: 20.6 µM [activator, partial curve, poor fit].

Q: With `C=CCNC(=O)c1ccc(NC(=O)C2=CSCCO2)cc1` as the molecule, how does the Potency read?
A: The Potency was inconclusive: 3.26 µM [activator, partial curve, poor fit].

Q: For `COc1ccccc1Sc1ccccc1/C=N/NC(N)=O`, which Potency is on record?
A: The Potency was inconclusive: 18.3 µM [activator, partial curve, poor fit].

Q: For `COc1ccc(S(=O)(=O)N(CC(=O)NC2CCCCC2)c2ccc(F)cc2)cc1`, which Potency is on record?
A: The Potency was “inactive”.

Q: For `C/C(=N\NC(=O)c1cc(C(C)C)[nH]n1)c1ccco1`, which Potency is on record?
A: Its Potency is inconclusive: 3.26 µM [activator, full curve].

Q: With `Cc1cc(C)n(-c2nnc(NC(C)(C)C)nn2)n1` as the molecule, how does the Potency read?
A: The Potency was inconclusive: 18.4 µM [activator, single point].

Q: For `O=c1c2ccccc2oc2ccc(NCCCN3CCOCC3)cc12`, which Potency is on record?
A: Its Potency is inconclusive: 6.51 µM [activator, partial curve].

Q: With `CCN(CC)S(=O)(=O)c1ccc2nc(NC(=O)c3cccs3)sc2c1` as the molecule, how does the Potency read?
A: The Potency was inconclusive: 2.91 µM [activator, full curve, poor fit].

Q: Which Potency does the source give for `CN(C(=O)c1ccc(NC(=O)c2ccco2)cc1)c1ccccc1` here?
A: The Potency was inconclusive: 23.1 µM [activator, partial curve].

Q: For `CCCN(C(=O)Cc1csc(-c2ccccc2)n1)C1CCS(=O)(=O)C1` (stereo not given), which Potency is on record?
A: Its Potency is “inactive”.

Q: With `CCOC(=O)N1N=C(c2ccccc2)CC1(O)C(F)(F)F` (stereo not given) as the molecule, how does the Potency read?
A: The Potency was inconclusive: 10.3 µM [activator, partial curve].

Q: With `Cc1c(C(=O)N2CCCCC2)c(S(=O)(=O)N2c3ccccc3CC2C)c(C)n1C` (stereo not given) as the molecule, how does the activity change, positive = activation read?
A: The activity change, positive = activation was inactive: -3.49% [at 9.26 µM].

Q: Which Potency does the source give for `COc1ccc(NC(=O)Nc2ccccc2F)c([N+](=O)[O-])c1` here?
A: The Potency was inconclusive: 18.3 µM [activator, partial curve, poor fit].

Q: For `C[C@@H]1COC(=O)[C@@H](CC(=O)OC(C)(C)C)C/C=C\C[C@@H](CC(=O)NCCO)C(=O)N1`, which Potency is on record?
A: The Potency was “inactive”.

Q: With `COc1ccc(C(=O)Nc2ccc(NC(=O)c3cccs3)cn2)cc1` as the molecule, how does the Potency read?
A: The Potency was inconclusive: 23.1 µM [activator, partial curve, poor fit].

Q: Which Potency does the source give for `CC(=O)NCCC1CCCCN1C(=O)c1cc(COc2cc(C)ccc2C)on1` (stereo not given) here?
A: The Potency was active: 16.4 µM.

Q: With `Cc1cccc(-n2ncc3c(N4CCOCC4)ncnc32)c1` as the molecule, how does the Potency read?
A: The Potency was inconclusive: 0.517 µM [activator, full curve, poor fit].

Q: Which Potency does the source give for `COC(=O)c1ccc(/C=N/Nc2nc(-c3ccccc3)cs2)cc1` here?
A: Its Potency is “inactive”.

Q: Which Potency does the source give for `CC(C)(C)n1ncc2c(=O)n(CC(=O)OCc3ccccc3)cnc21` here?
A: The Potency was inconclusive: 1.03 µM [activator, single point].

Q: Which Potency does the source give for `O=C(Nc1ccccn1)c1ccc(Br)s1` here?
A: The Potency was inconclusive: 9.2 µM [activator, partial curve].

Q: For `CC(=O)Nc1ccc(-c2csc(NCc3ccco3)n2)cc1`, which Potency is on record?
A: Its Potency is inconclusive: 7.31 µM [activator, partial curve].

Q: For `CC1(C(=O)OCC(=O)Nc2ccc(C(N)=O)cc2)CC1(Cl)Cl` (stereo not given), which Potency is on record?
A: The Potency was “inactive”.

Q: Which Potency does the source give for `CCN(C(=O)COC(=O)c1ccc(C)c(S(=O)(=O)N2CCCCC2)c1)C1CCS(=O)(=O)C1` (stereo not given) here?
A: Its Potency is “inactive”.

Q: Which Potency does the source give for `Cc1ccc(S(=O)(=O)NCc2ccccn2)c(C)c1C` here?
A: Its Potency is “inactive”.

Q: With `CCN(CC)CCN(C(=O)c1ccc(S(=O)(=O)N2CCOCC2)cc1)c1nc2cc3c(cc2s1)OCCO3` as the molecule, how does the Potency read?
A: The Potency was inconclusive: 25.9 µM [activator, partial curve, poor fit].

Q: With `COc1ccc(S(=O)(=O)N2CCCCC2)cc1NC(=O)c1[nH]c(C)c(C(C)=O)c1C` as the molecule, how does the Potency read?
A: Its Potency is active: 11.6 µM.

Q: Which Potency does the source give for `CC(=O)c1ccc(N2CCN(C(=O)CN3C(=O)NC4(CCCCC4)C3=O)CC2)c(F)c1` here?
A: Its Potency is “inactive”.

Q: For `O=C(/C=C/Nc1ccc([N+](=O)[O-])cc1Br)c1cccc2ccccc12`, which Potency is on record?
A: Its Potency is inconclusive: 7.31 µM [activator, partial curve].

Q: Which Potency does the source give for `COc1cc2c(cc1NC(=O)/C=C/c1ccc([N+](=O)[O-])cc1)oc1ccccc12` here?
A: Its Potency is inconclusive: 11.6 µM [activator, partial curve, poor fit].

Q: For `[O-][n+]1c2c(nc3c1-c1ccccc1C3O)CCCC2` (stereo not given), which Potency is on record?
A: Its Potency is inconclusive: 20.6 µM [activator, partial curve, poor fit].

Q: With `N/C(=N\OC(=O)c1ccc(Cl)cc1[N+](=O)[O-])c1ccccn1` as the molecule, how does the Potency read?
A: The Potency was active: 20.6 µM.

Q: Which Potency does the source give for `CC(NC(=O)COc1ccc(/C=N/NC(=O)CO)cc1)c1ccccc1` (stereo not given) here?
A: The Potency was “inactive”.

Q: For `CSc1nnc(-c2ccccc2Cl)o1`, which Potency is on record?
A: The Potency was inconclusive: 32.6 µM [activator, partial curve, poor fit].

Q: With `CCC(c1nc2ccccc2c(=O)n1-c1cccnc1)N1C(=O)c2ccccc2C1=O` (stereo not given) as the molecule, how does the Potency read?
A: The Potency was “inactive”.

Q: With `CCCCN(C)CC(O)Cn1cc(/C=C/C(=O)c2cccs2)c2ccccc21` (stereo not given) as the molecule, how does the Potency read?
A: The Potency was “inactive”.

Q: For `COc1ccccc1/C=C/C(=O)NC(=S)N1CCOCC1`, which Potency is on record?
A: Its Potency is inconclusive: 25.9 µM [activator, single point].

Q: Which Potency does the source give for `CCOc1ccc(C(C)=O)cc1CSc1nc(C)cc(C)n1` here?
A: The Potency was inconclusive: 18.3 µM [activator, single point].

Q: For `O=C(CSc1nnnn1-c1ccccc1)NC(=O)Nc1ccc2c(c1)OCCO2`, which Potency is on record?
A: The Potency was inconclusive: 8.2 µM [activator, partial curve].

Q: Which Potency does the source give for `CCNC(=O)N1CCN(CCCC(c2ccc(F)cc2)c2ccc(F)cc2)CC1` here?
A: The Potency was inconclusive: 29.1 µM [activator, partial curve, poor fit].

Q: Which Potency does the source give for `NC(=O)c1ccc(-c2ccc(Br)cc2)o1` here?
A: Its Potency is inconclusive: 25.9 µM [activator, partial curve, poor fit].

Q: Which Potency does the source give for `C=CCn1c(C)cc(C(=O)CSc2n[nH]c(N)n2)c1C` here?
A: The Potency was active: 14.6 µM.

Q: With `Cc1ccc(C)c(NC(=O)Cn2cnc3c(oc4ccccc43)c2=O)c1` as the molecule, how does the Potency read?
A: The Potency was inconclusive: 16.4 µM [activator, partial curve, poor fit].
